In the supplement of paper PMC12217912:
The list shows a part of the results. Sequences were assembled here from the parent chain. Inactive controls read about 0.05.

B1: TEV protease; numbered along this chain (parent)
chain: MGESLFKGPRDYNPISSSICHLTNESDGHTTSLYGIGFGPFIITNKHLFRRNNGTLVVQSLHGVFKVKDTTTLQQHLVDGRDMIIIRMPKDFPPFPQKLKFREPQREERICLVTTNFQTKSMSSMVSDTSCTFPSGDGIFWKHWIQTKDGQCGSPLVSTRDGFIVGIHSASNFTNTNNYFTSVPKNFMELLTNQEAQQWVSGWRLNADSVLWGGHKVFMVKPEEPFQPVKEATQL

Variants of: B1
Assay: raw area under fraction-flipped curve 0-4 h after induction (AUC4h, not background-subtracted), DNA-recorder readout of cleavage of the substrate (dimensionless); higher = more cleavage of the substrate by the protease variant
Conditions: temperature: 34 °C; time window: 0-4 h after rhamnose induction
Experimental: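 In vivo DNA recorder in E. coli TOP10(DE3) ΔrhaA at 34 °C. Each TEVp single-site mutant (parent TEVp 0) is paired with a single-site variant of the 7-mer TEVs (canonical ENLYFQ|S). The substrate sits between flexible linkers in a Bxb1-sfGFP-TEVs-SsrA fusion, so cleavage stabilises Bxb1 and speeds flipping of a recombination array, read by NGS. The value is the raw area under the fraction-flipped curve over 0-4 h after rhamnose induction (AUC4h), with ≥20 reads per time point. It is not background-subtracted; inactive controls average about 0.047.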
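Note: Bxb1 expression induced with 0.2% (w/v) L-rhamnose at OD600 near 0.5, cultures sampled hourly, flipped fraction per protease–substrate barcode pair counted by paired-end Illumina sequencing.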

| Variant | area with substrate ENLAFQS | area with substrate ENLCFQS | area with substrate ENLDFQS | area with substrate ENLEFQS | area with substrate ENLFFQS | area with substrate ENLHFQS | area with substrate ENLIFQS | area with substrate ENLMFQS | area with substrate ENLNFQS | area with substrate ENLPFQS | area with substrate ENLSFQS | area with substrate ENLVFQS | area with substrate ENLWFQS | area with substrate ENLKFQS | area with substrate ENLQFQS | area with substrate ENLRFQS | area with substrate ENLGFQS | area with substrate ENLLFQS | area with substrate ENLTFQS |
| --- | --- | --- | --- | --- | --- | --- | --- | --- | --- | --- | --- | --- | --- | --- | --- | --- | --- | --- | --- |
| F41Q | 0.0626 | 0.0746 | 0.0552 | 0.0518 | 0.0654 | 0.0564 | 0.0622 | 0.0668 | 0.0485 | 0.0603 | 0.0564 | 0.0733 | 0.0619 | – | – | – | – | – | – |
| N53D | 0.0477 | 0.0746 | 0.07 | 0.0678 | 0.0802 | – | 0.0783 | 0.103 | – | – | – | – | – | 0.0799 | 0.0435 | 0.079 | – | – | – |
| P14E | 0.0692 | – | 0.062 | 0.0667 | 0.0943 | 0.0763 | 0.0687 | – | 0.0674 | 0.05 | 0.0538 | 0.12 | – | 0.0764 | 0.0589 | 0.0684 | – | – | – |
| N52Q | 0.0508 | 0.0634 | – | 0.0552 | 0.0541 | 0.0826 | 0.0696 | 0.0532 | – | – | 0.0755 | – | 0.0608 | 0.0486 | 0.045 | 0.0638 | 0.0699 | 0.0647 | – |
| P222I | 0.0685 | 0.0627 | – | 0.0511 | 0.0771 | 0.0568 | 0.0784 | 0.0656 | – | – | – | – | 0.0572 | 0.0822 | – | 0.0659 | 0.0668 | – | – |
| Y12N | 0.0758 | – | – | – | 0.0987 | 0.0608 | 0.0682 | 0.0843 | – | 0.0666 | – | – | – | 0.0684 | 0.0526 | – | – | – | – |
| F49D | 0.0631 | 0.0531 | 0.0579 | 0.055 | 0.0525 | 0.0579 | – | – | 0.0625 | 0.0408 | 0.0591 | 0.0604 | – | 0.0563 | 0.0555 | 0.0629 | 0.0634 | – | – |
| L211M | 0.0826 | – | 0.0448 | 0.0649 | 0.0683 | 0.0669 | 0.0653 | 0.0639 | 0.0708 | 0.0701 | 0.076 | 0.0815 | – | 0.0729 | 0.0539 | 0.0846 | 0.0636 | 0.0761 | – |
| G162D | 0.012 | 0.0623 | 0.0593 | – | 0.052 | 0.0673 | 0.0492 | – | 0.0674 | – | 0.0649 | – | 0.104 | 0.0879 | 0.0703 | – | – | – | – |
| F226G | 0.0699 | 0.0695 | 0.0514 | 0.0649 | 0.0571 | 0.0638 | 0.0843 | 0.0776 | 0.0645 | – | 0.0698 | – | – | 0.0653 | 0.0608 | – | – | 0.0609 | – |
| Q118Y | 0.0524 | – | 0.0522 | – | – | – | – | – | 0.0646 | – | – | – | – | 0.084 | – | 0.0727 | – | – | 0.0615 |
| N177C | 0.0831 | – | 0.0555 | – | 0.122 | 0.0689 | – | 0.122 | 0.0903 | 0.0583 | – | 0.134 | – | 0.137 | – | – | – | – | – |
| V210N | 0.0547 | – | 0.0497 | – | 0.0725 | 0.0629 | – | 0.0554 | 0.0602 | 0.0575 | 0.0722 | 0.045 | – | 0.0702 | – | 0.0587 | – | – | – |
| I164G | 0.0707 | – | 0.0334 | 0.0736 | 0.0776 | 0.0634 | 0.0635 | – | – | 0.0623 | – | – | – | 0.0527 | 0.0394 | 0.0467 | – | – | – |
| S171H | 0.0587 | – | 0.0647 | 0.0297 | 0.0793 | 0.0521 | 0.0601 | 0.0661 | 0.0734 | 0.0635 | 0.065 | 0.0767 | – | 0.0705 | – | – | 0.0665 | – | 0.0621 |
| D79W | 0.0543 | 0.0506 | 0.0623 | – | 0.0504 | 0.0745 | 0.0802 | – | 0.0774 | 0.0375 | – | 0.0773 | 0.0584 | 0.0649 | 0.085 | 0.0742 | – | 0.0549 | 0.0991 |
| N13F | 0.0615 | 0.0724 | 0.0653 | 0.0661 | 0.0913 | 0.0644 | 0.0898 | 0.0941 | 0.0708 | 0.0603 | 0.0531 | 0.0554 | 0.0523 | 0.0707 | 0.0699 | – | – | 0.0565 | – |
| Y12M | 0.0592 | 0.0643 | 0.0545 | – | 0.0871 | 0.0673 | – | – | 0.0623 | 0.075 | 0.0655 | 0.0851 | 0.0579 | 0.0771 | 0.0698 | 0.0747 | – | 0.0728 | – |
| G63L | 0.0582 | 0.0821 | – | 0.104 | 0.0756 | 0.0675 | 0.0637 | 0.0644 | 0.0585 | – | 0.0564 | 0.0778 | 0.0587 | 0.0765 | 0.0574 | 0.0634 | 0.0855 | – | 0.0417 |
| A196F | 0.0627 | – | 0.0563 | 0.0665 | 0.0908 | 0.074 | 0.0948 | 0.0795 | 0.0739 | 0.0517 | 0.0577 | 0.101 | 0.0602 | 0.0826 | 0.0675 | 0.07 | – | – | – |
| D82L | 0.048 | 0.02 | 0.0474 | 0.0577 | 0.0612 | 0.0553 | – | – | 0.0601 | – | 0.0493 | 0.054 | – | 0.0812 | 0.0574 | – | – | 0.0453 | – |
| N13M | 0.0697 | 0.0679 | 0.0581 | – | 0.0817 | – | – | 0.0644 | 0.0581 | – | – | – | 0.0554 | 0.0713 | – | – | – | 0.064 | – |
| L99R | 0.0575 | 0.0791 | 0.133 | 0.0642 | 0.082 | 0.0674 | 0.0787 | – | 0.0667 | – | 0.0537 | – | 0.077 | 0.104 | 0.0764 | 0.0795 | – | 0.053 | – |
| N53Q | 0.0637 | 0.0623 | 0.061 | 0.0662 | 0.0725 | 0.062 | 0.069 | – | 0.061 | – | 0.067 | 0.074 | – | 0.0756 | 0.076 | 0.0694 | 0.0533 | 0.0623 | 0.0799 |
| T233M | 0.0549 | 0.0741 | 0.0595 | 0.0632 | 0.0772 | 0.0647 | – | – | 0.0808 | 0.0913 | 0.0662 | 0.0814 | 0.0763 | 0.0681 | 0.118 | 0.0794 | 0.0394 | 0.0556 | – |
| D11P | 0.0683 | – | 0.0674 | 0.0814 | 0.0724 | 0.0708 | 0.0799 | – | 0.0709 | 0.0603 | 0.054 | 0.0708 | – | 0.0608 | 0.0629 | 0.0899 | – | 0.0678 | – |
| Q198T | 0.0518 | 0.0716 | 0.0571 | 0.0735 | 0.0816 | 0.0788 | – | – | 0.0795 | 0.0658 | 0.0525 | – | 0.0809 | 0.0691 | 0.0659 | – | 0.0518 | 0.082 | – |
